Test results: PubChem BioAssay AID2675 (National Center for Advancing Translational Sciences (NCATS), 2010)
In all, about 280,000 compounds went through this assay and about 100 (0.036%) were called active. The inconclusive results got no clear call from the source; some entries with a clear call stand among them for comparison. The call rests on the fitted dose curve; in most records, active means well fitted inhibition curve with a large enough effect in the signal ratio, with a control signal flat (not every such curve was filed as active); inconclusive means small, poorly fitted or top-dose-only effect, or effect the other way, or a change in a side signal; inactive means no such curve, though single readings can be large or run the other way; the % refers to the signal ratio. A potency beside an inconclusive call is a rough fit, not a confirmed value. A note “side channel” means that the fit belongs to a control or component signal, not to the main read-out.

target: Muscleblind-like protein 1 (Homo sapiens) (UniProt Q9NR56); assay: qHTS Assay for Inhibitors of MBNL1-poly(CUG) RNA binding; conditions: TR-FRET MBNL1-His/biotin-(CUG)12 binding, 665/545 ratio; activity change, negative = inhibition: at 57.5 µM (top of the series)
Chain of UniProt Q9NR56 (Q9NR56 whole entry, looked up): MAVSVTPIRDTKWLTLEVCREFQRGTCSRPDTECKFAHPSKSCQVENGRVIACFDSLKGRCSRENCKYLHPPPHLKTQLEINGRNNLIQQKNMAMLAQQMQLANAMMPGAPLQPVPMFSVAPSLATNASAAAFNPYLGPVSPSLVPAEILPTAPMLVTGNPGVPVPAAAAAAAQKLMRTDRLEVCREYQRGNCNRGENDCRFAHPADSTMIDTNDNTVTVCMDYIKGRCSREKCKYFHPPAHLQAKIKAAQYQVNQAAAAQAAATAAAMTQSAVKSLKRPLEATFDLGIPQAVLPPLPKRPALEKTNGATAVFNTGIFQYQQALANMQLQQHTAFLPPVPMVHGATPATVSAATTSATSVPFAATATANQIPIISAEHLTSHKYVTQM
Procedure, shortened: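 Ratiometric TR-FRET (665 over 545 nm, excitation 340 nm) tracks disruption of MBNL1-His/biotin-(CUG)12 complex after 60 min at room temperature, with compounds at 92 nM to 58 uM final.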
On the % scale 0 is the no-effect control and ±100 the full control effect; potency means the concentration at half of the fitted maximal effect; tags describe the fitted curve by direction and shape or compound fluorescence and quenching.

Row | SMILES | Potency | activity change, negative = inhibition
1 | COc1cc(/C=C(\C#N)C(=O)NCCc2ccccc2)cc(OC)c1O | inconclusive: 14.1 µM [quencher, side channel, partial curve] | –
2 | Cc1c(/C(O)=C2/C(=O)C(=O)N(CCN3CCOCC3)C2c2ccccn2)cnn1-c1ccccc1 (stereo unspecified) | inconclusive: 14.1 µM [quencher, side channel, partial curve] | –
3 | CN1CCN(C/C(=C2/N=C(c3ccccc3)OC2=O)N(C)C)CC1 | inconclusive: 25.1 µM [quencher, single point] | –
4 | CCOC(=O)c1ccc(NC(=O)c2nc[nH]c2C(=O)NCCCCCNC(=O)OC(C)(C)C)cc1 | – | inactive: -6.04%
5 | O=[N+]([O-])c1cccc(S(=O)(=O)NC2CC3CCC2C3)c1 (stereo unspecified) | inconclusive: 14.1 µM [quencher, side channel, partial curve] | –
6 | O=C(COc1ccccc1)Nc1ccc(-c2nnc(-c3ccco3)o2)cc1 | – | inactive: 3.73%
7 | O=[N+]([O-])c1cc(C(F)(F)F)cc([N+](=O)[O-])c1NCCN1CCNCC1 | inconclusive: 10 µM [quencher, side channel, partial curve] | –
8 | COc1ccc(CCN(C)C/C=C/c2ccccc2[N+](=O)[O-])cc1OC | inconclusive: 15.8 µM [quencher, side channel, partial curve] | –
9 | COc1ccc2c3c(c(=O)oc2c1)C1O[C@](c2ccsc2)(Cc2cc(C#N)ccc21)O3 | – | inactive: 2.8% [at 11.5 µM]
10 | CN1CCN(CCCNC(=O)Nc2ccc([N+](=O)[O-])cc2)CC1 | inconclusive: 15.8 µM [quencher, side channel, partial curve] | –
11 | CC1CCN(CCn2c(=S)[nH]c3ccccc3c2=O)CC1 | – | inactive: 15.7%
12 | Cc1ccc(C=Nc2cc([N+](=O)[O-])ccc2C)s1 | inconclusive: 3.98 µM [quencher, side channel, single point] | –
13 | COc1cc2ncnc(Nc3cccc(Cl)c3)c2cc1OC | – | inactive: -0.0274%
14 | Cc1ccc(N(CC(=O)Nc2c(C)cccc2C)S(C)(=O)=O)cc1 | – | inactive: -0.443%
15 | CCc1cc2c(=O)c(-c3cnn(-c4ccccc4)c3)c(C)oc2c(CN2CCCCC2)c1O | – | inactive: -9.95%
16 | CN(C)CCNc1ccc(-c2nn(C)c(=O)c3ccccc23)cc1[N+](=O)[O-] | inconclusive: 28.2 µM [quencher, side channel, partial curve] | –
17 | O=C1NC(=S)S/C1=C1\Sc2ccccc2N1CCCS(=O)(=O)O | inconclusive: 20 µM [quencher, side channel, partial curve] | –
18 | CCc1cc(C(=O)OC)c(NC(=O)C2CC(=O)NN2Cc2ccccc2)s1 (stereo unspecified) | inconclusive: 79.4 µM [inhibitor, single point] | –
19 | COc1ccccc1NC(=O)N(Cc1ccco1)Cc1cc2cccc(C)c2[nH]c1=O | inconclusive: 8.91 µM [quencher, side channel, partial curve] | –
20 | O=c1ccc(-c2ccc(S(=O)(=O)Nc3ccc(F)cc3)s2)n[nH]1 | inconclusive: 25.1 µM [quencher, side channel, partial curve] | –
21 | CC1=C(C(=O)NC2CCCCC2C)C2(CCC(C)CC2)OC1=O (stereo unspecified) | inconclusive: 39.8 µM [quencher, side channel, single point] | –

Row | SMILES | Potency | activity change, negative = inhibition
22 | Cc1ccc(N2CC(c3nc4ccccc4[nH]3)CC2=O)c(C)c1 (stereo unspecified) | inconclusive: 2.24 µM [fluorescent, side channel, partial curve] | –
23 | O/N=C1/CC/C(=N\O)c2nn(-c3ccccc3)nc21 | – | inactive: -9.65%
24 | C/C(=N\NC(=O)c1c([N+](=O)[O-])c(C)nn1C)c1ccc(NC(=O)C2CCCC2)cc1 | inconclusive: 12.6 µM [quencher, side channel, partial curve] | –
25 | Cc1ccc([N+](=O)[O-])cc1NC(=O)CN(C)CCOc1ccccc1 | inconclusive: 31.6 µM [quencher, side channel, partial curve] | –
26 | O=C(O)c1ccc(CN2C(=O)c3cccc4c([N+](=O)[O-])ccc(c34)C2=O)cc1 | inconclusive: 14.1 µM [quencher, side channel, partial curve] | –
27 | c1coc(-c2nnc3sc(-c4cccs4)nn23)c1 | inconclusive: 35.5 µM [quencher, side channel, single point] | –
28 | S=c1[nH]nc(-c2cccc(Br)c2)o1 | – | inactive: 230%
29 | COc1ccc(CCNc2oc(-c3ccco3)nc2C#N)cc1 | inconclusive: 39.8 µM [quencher, side channel, single point] | –
30 | CCOC(=O)c1ccc2c(c1)C1C=CCC1C(C(=O)OCC)N2 (stereo unspecified) | inconclusive: 25.1 µM [quencher, side channel, single point] | –
31 | CN(C)CCN(C(=O)/C=C/c1cccs1)c1nc2ccc(Br)cc2s1 | – | inactive: 2.24%
32 | CCCCC1=CC2=C(c3ccco3)C(=O)C(C)(OC(=O)c3ccc(OC)cc3)C(=O)C2=CN1C1CCCCC1 (stereo unspecified) | – | inactive: 49.4%
33 | C/C(=N\NS(=O)(=O)c1ccc([N+](=O)[O-])cc1)c1cccs1 | inconclusive: 22.4 µM [quencher, side channel, partial curve] | –
34 | O=C(ONC1=NCCCCC1)c1cccc([N+](=O)[O-])c1 | inconclusive: 22.4 µM [quencher, side channel, partial curve] | –
35 | Cc1cc(/C=C(\C#N)C(=O)NCc2cccs2)c(C)[nH]1 | inconclusive: 7.94 µM [quencher, side channel, partial curve] | –
36 | CC(C)CC1NC(=O)N(CC(=O)N2c3ccccc3NC(=O)C2(C)C)C1=O (stereo unspecified) | – | inactive: 2.13%
37 | COc1ccc(OC)c(NC2=NC3(CCCC3)N=C(N)N2)c1 | – | inactive: 2.72%
38 | Cc1cccc(OCc2nnc(NC(=O)Cc3cccs3)s2)c1 | inconclusive: 39.8 µM [quencher, side channel, single point] | –
39 | CCCCCCC(=O)NN1CCN(C)CC1 | – | inactive: -7.66%
40 | CCOC(=O)N1CCN(C(=O)c2ccc(N3C(=O)c4ccccc4C3=O)cc2)CC1 | inconclusive: 20 µM [quencher, side channel, partial curve] | –
41 | O=c1cc(-c2ccc(O)cc2)oc2c(O)c(O)c(O)c(O)c12 | inconclusive: 28.2 µM [quencher, side channel, single point] | –
42 | O=[N+]([O-])c1ccc(S(=O)(=O)Nc2ccncc2)cc1 | inconclusive: 11.2 µM [quencher, side channel, partial curve] | –

Row | SMILES | Potency | activity change, negative = inhibition
43 | O=C(CCC(=O)c1ccc(Oc2ccccc2)cc1)Nc1cccc(Cl)c1 | inconclusive: 0.126 µM [fluorescent, side channel, full curve] | –
44 | Cc1ccc(NC2=C(N3CCOCC3)C(=O)c3ccccc3C2=O)cc1 | inconclusive: 15.8 µM [quencher, side channel, partial curve] | –
45 | O=C(CC1SC(=O)N(c2ccccc2)C1=O)Nc1ccc(Br)cc1 (stereo unspecified) | – | inactive: 3.64%
46 | COc1ccc(NC(=S)c2ccc3ccccc3n2)cc1 | inconclusive: 39.8 µM [quencher, side channel, single point] | –
47 | c1ccc(COC2CCCN(Cc3nc(-c4cnccn4)no3)C2)cc1 (stereo unspecified) | inconclusive: 6.31 µM [fluorescent, side channel, single point] | –
48 | COc1cc(C(c2c(C)[nH][nH]c2=O)c2c(C)[nH][nH]c2=O)cc([N+](=O)[O-])c1O | inconclusive: 15.8 µM [quencher, side channel, partial curve] | –
49 | CCOc1ccc(/C=C2\SC(=O)N(CCNC(=O)CN3C(=O)NC4(CCCC4)C3=O)C2=O)cc1OC | inconclusive: 20 µM [quencher, side channel, partial curve] | –
50 | COc1ccc(C(=O)NCc2ccc(S(N)(=O)=O)cc2)cc1[N+](=O)[O-] | inconclusive: 39.8 µM [quencher, single point] | –
51 | O=Cc1ccc(-c2cccc([N+](=O)[O-])c2)o1 | inconclusive: 8.91 µM [quencher, side channel, partial curve] | –
52 | CCC(C)Nc1nc(Cl)nc(N(C#N)CN2C(=O)c3ccccc3S2(=O)=O)n1 (stereo unspecified) | – | inactive: 0.602%
53 | Cc1cccc2c1NC(=O)C2=Nc1ccc(Cl)cc1 | inconclusive: 15.8 µM [quencher, side channel, partial curve] | –
54 | Cc1ccc(N2CCN(/N=C/c3ccncc3)CC2)cc1 | inconclusive: 31.6 µM [quencher, side channel, single point] | –
55 | COc1cc(C(=O)Nc2cccc3ncccc23)cc(OC)c1OC | – | inactive: 5.7%
56 | CC1CCC(C(C)C)C(OC(=O)Cn2c(-c3ccccc3)[n+](C)c3ccccc32)C1 (stereo unspecified) | inconclusive: 0.891 µM [fluorescent, side channel, partial curve] | –
57 | COc1cccc(NC(=O)c2cc([N+](=O)[O-])ccc2NC(=O)CNCC2CCCO2)c1 (stereo unspecified) | inconclusive: 12.6 µM [quencher, side channel, partial curve] | –
58 | CC(C)C(NS(=O)(=O)c1cccc2nsnc12)C(=O)N1CCc2ccccc2C1 (stereo unspecified) | inconclusive: 14.1 µM [quencher, side channel, partial curve] | –
59 | O=C(Nc1ccc2[nH]c(=O)[nH]c2c1)c1cccc([N+](=O)[O-])c1 | inconclusive: 2.51 µM [quencher, side channel, full curve, poor fit] | –
60 | COc1ccccc1NC(=S)NCCc1ccc(OC)c(OC)c1 | – | inactive: -8.6%
61 | COC(=O)CC1c2cc(OC)c(OC)cc2CC(=O)c2cc(OC)c(OC)cc21 (stereo unspecified) | inconclusive: 0.141 µM [quencher, side channel, full curve, poor fit] | –
